# From the supplement of paper PMC4466236
# In all, about 33,000 sequences were measured (“E-score (dimensionless, -0.5 to 0.5)”: median about -0.058, highest 2% from about 0.35 on). The list shows a part of the results.
# System: MvaT
# Assay: PBM 8-mer E-score (mean of HK and ME arrays) (E-score (dimensionless, -0.5 to 0.5)); higher = stronger relative binding preference; most listed sequences are background and not binding sites
# Summary of the method: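 Full-length P. aeruginosa MvaT, with glutathione S-transferase fused to its N-terminus (cloned into pTH6838 by isothermal assembly), was tested by protein binding microarray using a previously described protocol. Two universal double-stranded 60-mer arrays (ME and HK) were used, each with a constant 25-mer primer region and a variable 35-mer region covering all 8-mers. The rank-based 8-mer E-score (-0.5 to 0.5) is the mean of the two arrays, parsed with a custom Python script.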
row,Sequence,PBM 8-mer E-score
1,AACTGAAA,0.1
2,GCGATCCC,-0.265
3,GCGCCCGC,-0.317
4,TCAATTGA,0.212
5,CCAGCGCG,-0.252
6,CATCGGTC,-0.2
7,GCAAGAAC,-0.0598
8,CTTGTCGC,-0.147
9,TATCGAAA,0.144
10,TACGCATA,-0.0832
11,AACTAAAG,0.202
12,AGGGAACA,-0.0361
13,ACTGAGAT,0.0213
14,ATCAAGGG,-0.179
15,AAATATGG,0.278
16,CTTGGGCC,-0.354
17,CGAGCACC,-0.211
18,ACGACGAT,0.0121
19,CAGGATTA,0.0198
20,GTATCAAC,0.167
21,AAGTCAAA,0.117
22,AAGCACGG,-0.16

row,Sequence,PBM 8-mer E-score
1,TGAGGACA,0.00325
2,GCTCGCAC,-0.22
3,CCTACAGC,-0.247
4,CGGCCGGA,-0.172
5,TCTAACCA,0.0514
6,CCGCTTAG,-0.0855
7,CCCACAGG,-0.29
8,AAACATTA,0.303
9,AACGGCAC,-0.0645
10,CTCCGAAG,-0.162
11,CAGAAATA,0.274
12,CTACAGAA,0.00706
13,ATCATCGC,0.0285
14,CCTTTGTC,-0.203
15,GAGCTCGA,-0.127
16,ATGCCCTC,-0.354
17,TAGGCACA,-0.107
18,GTGATTTA,0.176
19,TCCGGGAA,-0.103
20,CAGAGATC,-0.143
21,CCCTTGTA,0.0407
22,GCATGCCC,-0.221

row,Sequence,PBM 8-mer E-score
1,GGGTTGAC,-0.213
2,AAAAGGAG,-0.107
3,AGACGACG,-0.12
4,ATCCAGTA,0.0478
5,AATTTTTG,0.194
6,AATCGTGG,-0.0233
7,CCCTCACG,-0.188
8,ACTGCTTA,0.178
9,CACCATTA,0.167
10,ACCACAGA,0.00601
11,AAATCGTC,-0.0137
12,AGAGCCAG,-0.199
13,CATCTCGG,-0.18
14,ATATGACG,0.195
15,CTAAAGAA,0.243
16,ACCGCGGG,-0.157
17,AACGCTTC,-0.149
18,AACCACCA,-0.0466
19,CTCTAGAC,-0.178
20,ACATACTA,0.278
21,ATGAAAAG,0.22
22,AGCCGCAT,-0.171

row,Sequence,PBM 8-mer E-score
1,ACGTCCCT,-0.167
2,ACGATAAA,0.193
3,ATATCTGC,0.222
4,ACTGCCCG,-0.178
5,CTCAAACA,0.0497
6,TAGGCCCA,-0.168
7,AAAGTAGG,0.0451
8,AGAGGCTG,-0.304
9,GTTGACTA,0.129
10,ACATGTAA,0.361
11,GCCTTGGA,-0.206
12,AACTCTCT,0.0164
13,TAAATTAA,0.437
14,ACGACAAC,0.0764
15,ATGTGAAC,0.113
16,AGCGCTTA,-0.159
17,ATCTAGCA,0.152
18,GGCGCTTA,0.0328
19,ATTGCACC,0.0315
20,CCTTGATA,0.0131
21,GGGGAACC,-0.283
22,TGGTCACA,-0.147

row,Sequence,PBM 8-mer E-score
1,CTGACCAA,-0.0913
2,AGCAACCT,-0.211
3,GCACCCCC,-0.202
4,ACCGTGAT,-0.129
5,ACCTGACG,-0.127
6,ACCGGGTG,-0.226
7,ACCACGTC,-0.269
8,CTCTCGTA,-0.0316
9,AGCAGTAC,0.0828
10,GCAATTCC,0.00763
11,ACCACATC,-0.0359
12,ATGTTGAG,0.126
13,AACTTTGG,0.286
14,AACAGGTG,-0.141
15,CCAAATCG,-0.0865
16,ACAATACC,0.143
17,GGGGTACA,-0.0667
18,CCTCAGAC,-0.153
19,GCAATGGA,-0.0761
20,ACTACCGG,-0.0644
21,CTGGGGCC,-0.185
22,AAACAAGT,0.127
